In all, about 220,000 compounds went through this assay and about 16,000 (7.3%) were called active. This list was built around the results that the source calls inconclusive (neither active nor inactive); the mix of calls is not that of the screen. The call rests on the fitted dose curve; in most records, active means well fitted inhibition curve with a large enough effect (not every such curve was filed as active); inconclusive means small, poorly fitted or top-dose-only effect, or another doubt; inactive means no such curve, though single readings can be large or run the other way. Where the call is inconclusive, the potency comes from a doubtful curve fit.
biological target: Aldehyde dehydrogenase 1A1 (Homo sapiens) (UniProt P00352); test: qHTS Assay for Inhibitors of Aldehyde Dehydrogenase 1 (ALDH1A1); conditions: Purified ALDH1A1, NADH fluorescence, propionaldehyde substrate; series mostly up to 75.3 µM; activity, negative = inhibition: at the top concentration;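 on activity, negative = inhibition: plate controls were no enzyme wells and a reference inhibitor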
UniProt P00352, sequence (P00352 whole entry, looked up): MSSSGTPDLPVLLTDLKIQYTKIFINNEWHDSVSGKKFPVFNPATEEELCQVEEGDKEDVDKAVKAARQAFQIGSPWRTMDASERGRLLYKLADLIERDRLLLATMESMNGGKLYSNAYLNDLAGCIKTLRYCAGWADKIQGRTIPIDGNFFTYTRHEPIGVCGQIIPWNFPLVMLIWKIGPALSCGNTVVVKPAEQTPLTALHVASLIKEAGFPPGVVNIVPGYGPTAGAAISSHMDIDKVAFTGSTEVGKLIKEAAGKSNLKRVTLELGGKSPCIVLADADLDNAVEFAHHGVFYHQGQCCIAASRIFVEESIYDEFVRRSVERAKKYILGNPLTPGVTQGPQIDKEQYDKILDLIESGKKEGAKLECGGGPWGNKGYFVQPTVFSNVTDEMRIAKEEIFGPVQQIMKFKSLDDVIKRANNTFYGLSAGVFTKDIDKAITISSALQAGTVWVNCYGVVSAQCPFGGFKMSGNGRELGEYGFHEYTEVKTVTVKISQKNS
Potency means the concentration at half of the fitted maximal effect; tags describe the fitted curve by direction and shape.

Potency, active:
CC(C)C(=O)N1CCc2cc(-c3csc(N)n3)ccc21 14.1 µM, CC/C(=N/Nc1cccc(C)c1)c1cnnc(SC)n1 9.46 µM, Cn1cc(C=C2C(=O)CC(C)(C)CC2=O)c2ccccc21 1.26 µM, Cc1nn(C)c(C)c1S(=O)(=O)N(CC(=O)N1CCc2ccccc2C1)c1ccc(C(C)C)cc1 11.2 µM, Cc1ccc(/C=C2/SC(=O)NC2=S)o1 14.1 µM, COc1ccc(/C(O)=C2/C(=O)C(=O)N(CCN3CCOCC3)C2c2cccnc2)cc1OC (stereo not drawn) 25.1 µM, Nc1cc(N2CCCCC2)c([N+](=O)[O-])cc1Cl 3.55 µM, COc1ccc(C(=O)NC(=S)Nc2ccccc2N2CCOCC2)cc1[N+](=O)[O-] 7.08 µM

Potency, inconclusive:
Cn1cc(CNC(=O)c2cc(-c3ccccc3)nc3ccc(Br)cc23)cn1 3.55 µM [inhibitor, partial curve], O=C(Nc1ccc(F)cc1)N(Cc1ccco1)Cc1cc2cc3c(cc2[nH]c1=O)OCO3 28.2 µM [inhibitor, partial curve], OC[C@@H]1CCCN1Cc1nc(-c2cccs2)no1 31.6 µM [inhibitor, single point], CCOC(=O)C1Oc2ccccc2C(c2ccccc2)=C1C(C)=O (stereo not drawn) 31.6 µM [inhibitor, single point], COc1ccc2nc(NC(=O)CN3CCN(C)CC3)sc2c1 39.8 µM [inhibitor, single point], O=C(NC(=S)Nc1ccc2[nH]c(=O)[nH]c2c1)c1cncc(Br)c1 15 µM [inhibitor, partial curve, poor fit], CCc1ccc2nc(Nc3nc(COC)cc(=O)[nH]3)nc(C)c2c1 14.1 µM [inhibitor, partial curve], CCOC(=O)CC(NC(=O)c1cccc2c1C(=O)N(Cc1cccnc1)C2)c1ccc(OCC)c(OC)c1 (stereo not drawn) 25.1 µM [inhibitor, single point], COc1ccc(N(CC(=O)NCc2cccs2)S(=O)(=O)c2c(C)nn(C)c2C)cc1 20 µM [inhibitor, single point], Cc1ccccc1NC(=O)c1ccc(Nc2c([N+](=O)[O-])cc([N+](=O)[O-])c3ccccc23)cc1 5.62 µM [inhibitor, partial curve], CCCCc1ccc(NC(=O)CSC2=C(C#N)C(c3ccco3)C3=C(CCCC3=O)N2)cc1 (stereo not drawn) 25.1 µM [inhibitor, partial curve], C=CCn1c(CSc2nc3ccccc3s2)nnc1SCC(=O)NCc1ccco1 35.5 µM [inhibitor, single point], COc1ccc(-c2nc3cccc(C)n3c2NCc2ccco2)cc1OC 23.8 µM [inhibitor, partial curve], Cc1ccc(-c2nc(CS(=O)CC(=O)NC3CCCC3)c(C)o2)cc1 (stereo not drawn) 35.5 µM [inhibitor, single point], O=C(O)c1nn2cc(CCO)cnc2c1Cl 28.2 µM [inhibitor, partial curve], CCN1CCN(C(c2cc3cc4c(cc3[nH]c2=O)OCO4)c2nnnn2C(C)(C)CC)CC1 (stereo not drawn) 31.6 µM [inhibitor, partial curve], O=C(Nc1ccccc1)Oc1ccccc1N1CCOCC1 39.8 µM [inhibitor, single point], Cc1ccn2cc(-c3cccc([N+](=O)[O-])c3)nc2c1 39.8 µM [inhibitor, single point], O=C(Cc1ccccc1F)c1ccc(O)cc1O 39.8 µM [inhibitor, single point], CN(C)c1cccc(/C=C(\C#N)c2ccccc2)c1 9.46 µM [inhibitor, partial curve], C/C(C=O)=C/c1ccccc1 39.8 µM [inhibitor, single point], O=C(NCC1CCCO1)c1cc(-c2ccccc2)nc2ccccc12 (stereo not drawn) 39.8 µM [inhibitor, single point], C=CCn1c(SCC(=O)c2ccc(NS(=O)(=O)c3ccccc3)cc2)nnc1-c1cccs1 39.8 µM [inhibitor, single point], O=C(NCCN1CCOCC1)c1cccnc1SCc1ccccc1Cl 28.2 µM [inhibitor, single point], CCCc1[nH]nc2c1C(C1CC=CCC1)C(C#N)=C(N)O2 (stereo not drawn) 39.8 µM [inhibitor, single point], COc1ccc2cc(C(c3nnnn3Cc3ccc(F)cc3)N3CCCCCC3)c(=O)[nH]c2c1 (stereo not drawn) 15.8 µM [inhibitor, partial curve], COc1ccccc1CN(Cc1cc2cc(C)cc(C)c2[nH]c1=O)Cc1nnnn1CC1CCCO1 (stereo not drawn) 39.8 µM [inhibitor, single point], CN1/C(=c2/s/c(=C3/C(=O)N(c4ccccc4)NC3=Nc3ccccc3)n(C)c2=O)C(C)(C)c2ccccc21 28.2 µM [inhibitor, partial curve], N#CC1=C(N)N2C(=C(C#N)C1c1ccccc1)Sc1ccccc12 (stereo not drawn) 39.8 µM [inhibitor, single point], CNc1sc(C(=O)c2ccccc2F)c(N)c1-c1nc2ccccc2s1 25.1 µM [inhibitor, single point], CCOC(=O)c1cnc(SCC(=O)Nc2ccc(NC(C)=O)c(OC)c2)nc1N 22.4 µM [inhibitor, single point], COCc1cc(C)[nH]c(=O)c1C#N 25.1 µM [inhibitor, partial curve], CC1(C)Cc2nc3oc4c(NCc5ccccc5)ncnc4c3cc2CO1 11.2 µM [inhibitor, partial curve], O=C(CSCc1c(Cl)cccc1Cl)Nc1ccc2c(c1)OCCO2 39.8 µM [inhibitor, single point], Cc1ccccc1-c1nnc(-c2cccs2)o1 39.8 µM [inhibitor, single point], Nc1nc(SCC(=O)N2CCCc3ccccc32)n(-c2ccccc2)n1 35.5 µM [inhibitor, single point], COC(=O)c1cc(OC)c(OC)cc1NC(=O)c1ccc(OC)cc1 37.7 µM [inhibitor, single point], COc1ccc(NC2=C(C(C)=O)C(c3ccc(OC)c(OC)c3)C(C(C)=O)C(C)(O)C2)cc1 (stereo not drawn) 39.8 µM [inhibitor, single point], CCN(CC)C(=O)CSc1nc2sc3c(c2c(=O)n1-c1ccc(C)cc1)CC(C)(C)SC3 7.94 µM [inhibitor, partial curve], Cc1ccccc1OCCNC(=O)/C=C/c1ccccc1 39.8 µM [inhibitor, single point], COc1ccc(NC(=O)c2ccc(CN(c3cc(Cl)ccc3C)S(=O)(=O)c3ccccc3)cc2)cc1OC 22.4 µM [inhibitor, single point], CC1CCc2nc(NC(=O)CN3CCN(c4ccc(F)cc4)CC3)sc2C1 (stereo not drawn) 39.8 µM [inhibitor, single point], CC(C)c1ccc(NC(=O)c2sccc2-n2cccc2)cc1 39.8 µM [inhibitor, single point], O=C(O)CCC1=C2c3ccccc3CCN2C(=O)CC1 39.8 µM [inhibitor, single point]

activity, negative = inhibition, inactive:
O=C(Nc1ccc(N2CCOCC2)cc1)c1ccc2nc(-c3ccco3)c(-c3ccco3)nc2c1 3.23%, CCN(CC)C(=O)c1sc(NC(=O)c2cccc([N+](=O)[O-])c2)c(C#N)c1C -11%, O=C(c1ccncc1)N1CCN(C(=O)c2cccs2)CC1 9.79%, CS(=O)(=O)N1CCN(C(=S)NCc2ccc(F)cc2)CC1 17.4%, Cc1cccc(C)c1NC(=O)C(c1ccc([N+](=O)[O-])cc1)N(C)C(=O)c1ccccn1 (stereo not drawn) 0.824%, O=C(CN(C(=O)CCC(=O)Nc1nccs1)c1ccc(F)cc1)NCC1CCCO1 (stereo not drawn) 8.39%, CCOC(=O)c1ccc(Oc2nc(OC)cc(OC)n2)cc1 -1.33%, Cc1ccc2c(C)cc(=S)[nH]c2c1 -10.8%, CCOC(=O)C1=C(N)Oc2cc(C)[nH]c(=O)c2C1c1ccncc1 (stereo not drawn) 1.53%, Cc1cc(C)n(-c2ccc([N+](=O)[O-])cc2-c2nn[nH]n2)n1 -5.43%, CCC(C)NS(=O)(=O)c1ccc(NC(=O)Cc2ccc(OC)cc2)cc1 (stereo not drawn) 6.93%, CCCCN1CCNC1=S 5.33%, Cc1ccc(CN2CCN(Cc3cccn3-c3nccs3)CC2CCO)cc1 (stereo not drawn) 16.2%, CC1CCN(C(=O)C2CCC(C)(C(=O)O)C2(C)C)CC1 (stereo not drawn) 1.84%, COc1ccc(NC(=O)N2CCCC3(CCN(C(=O)c4cc(C(F)(F)F)cc(C(F)(F)F)c4)CC3)C2)cc1 2.25%, Cc1ccccc1-c1nn[nH]n1 -7.6%, CCOC(=O)CNC(=O)c1ccc(OCC(F)(F)F)cc1 10.8%, Cc1ccccc1NC(=O)NC(C)(C)CC(C)(C)C 10.7%, O=C(CCCC(=O)OCC(F)(F)C(F)F)Nc1nccs1 -1.58%, CCOc1ccccc1C(=O)N1CCOCC1 1.76%, O=C(N/N=C/c1ccc(OCc2ccccc2)cc1)c1ccc(O)cc1 12.2%
